viability, T/C data for three molecules are collected here from PubChem BioAssay AID1919002 (Molecular Pharmacology Branch, DTP, NCI, 2023).

Structures are written as SMILES. Certain results were filed several times, with different values. This list holds those alone. There may be further records. Values that stand side by side repeat one measurement across runs, samples, wells, individuals or studies. Signs of the kind (2×) say how often a value occurs here.

The test has as its system 743489-274-T-PDC complex spheroid growth. The experiment in a line: Anticancer human tumor 743489-274-T-PDC patient-derived renal cell carcinoma cell line growth inhibition [AhR]. The settings on record: stronger effect = lower value. An excerpt:
Multicellular complex tumor spheroid response to aryl hydrocarbon receptor antagonists in combination with a variety of drugs and investigational agents in selected tumor cell lines
The current study was undertaken to assess response to aryl hydrocarbon receptor antagonists in combination with standard-of-care drugs and investigational agents in solid tumor complex spheroid models. Complex spheroids include a stromal component modeled by human endothelial cells (HUVEC) and fibroblasts modeled by human mesenchymal stem cells (MSCs). The concentration ranges selected for each drug and investigational agent were based upon clinically achievable concentrations if the clinical Cmax of the agent was known.
Compounds. The drugs and investigational agents: BAY 2416964 (NSC825713), GNF351 (NSC835774), CH-223191 (NSC835775), CPI-455 (NSC825282), aza-TdCyd (NSC777586), decitabine (NSC127716), belinostat (NSC758774), entinostat (NSC756642), pevonedistat (NSC761192), tazemetostat (NSC777109), talazoparib (NSC765396), olaparib (NSC753686), selinexor (NSC780203), nedisertib (M3814, NSC802822), bortezomib (NSC756655), venetoclax (NSC766270), doxorubicin (NSC123127), elimusertib (BAY189344, NSC800525), ceralasertib (AZD6738, NSC777638), TAK-243 (NSC785004), alisertib (NSC759677), etoposide (NSC141540), topotecan (NSC609699), eribulin (NSC707389), gemcitabine (NSC613327), carboplatin (NSC241240), cisplatin (NSC119875), and SN-38 (NSC673596) were obtained from the National Cancer Institute (NCI) Developmental Therapeutics Program Chemical Repository (32). The FDA-approved anticancer drug set is available from the Developmental Therapeutics Program at https://dtp.cancer.gov/organization/dscb/obtaining/available plates.htm. […] The stock solutions were prepared in dimethyl sulfoxide (DMSO, Sigma-Aldrich, St. Louis, MO, cat. D2650), except for the platinum compounds which were prepared in saline (Quality Biological, Gaithersburg, MD, cat. 114-055-101), at 800-fold the tested concentration and stored at -70 degrees C prior to their use. All drugs and investigational agents were tested over a range starting from a high concentration at or near the clinical Cmax and decreasing in half-log increments. If the clinical Cmax for an agent had not been determined, the highest concentration tested was 10 microM (Table 1).
Cell Culture. All cells were maintained in an incubator at 37 degrees C and 5% CO2 with 95% humidity. The PDC lines were cultured according to standard operating procedures established by the NCI PDMR (https://pdmr.cancer.gov). Briefly, all PDCs were thawed and cultured in Matrigel-coated flasks prepared with a working solution of 1X Ham's F-12 nutrient mix, without supplementation (Invitrogen, Waltham, MA, cat. 11765054), 100 U/mL penicillin-streptomycin (Invitrogen, cat. 15140122), and 2.5% Matrigel (Corning Inc., Corning, NY, cat. 354248) for the first three passages. All PDCs were cultured in complete DMEM/F-12 media containing advanced DMEM/F-12 (Invitrogen, cat. 12634028), 4.9% defined fetal bovine serum, heat inactivated (HyClone Laboratories Inc., Logan, UT, cat. SH30070.03HI), 389 ng/mL hydrocortisone (Sigma-Aldrich, cat. H4001), 9.7 ng/mL human EGF recombinant protein (Invitrogen, cat. PHG0313), 23.4 microg/mL adenine (Sigma-Aldrich, cat. A2786), 97.3 U/mL penicillin-streptomycin (Invitrogen, cat. 15140122), 1.9 mM L-glutamine (Invitrogen, cat. 25030081), and 9.7 microM Y-27632 dihydrochloride (Tocris Bioscience, Bristol, United Kingdom, cat. 1254). The PDCs were cultured in complete DMEM/F12 media without 10 microM Y-27632 dihydrochloride for at least two passages prior to the screen. The established cell lines NCI-H1341 and […] were cultured in DMEM/F-12, HEPES (Invitrogen, cat. 11330032), 5% defined fetal bovine serum (HyClone Laboratories Inc., cat. SH30070.03), ITS premix universal culture supplement [insulin (5 microg/mL), transferrin (5 microg/mL), and selenious acid (5 ng/mL)] […]
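Note: spheroids exposed to agents for 7 days before readout; 100% = DMSO vehicle control wells.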

Turning to `Cc1ccccc1N=Nc1ccc(NC(=O)c2ccnn2C)c(C)c1`, the viability, T/C was 84.7, 84.6, 77.7, 75.1, 95.2, 83.1, 90.9, 81.6, 78.3, 90.5, 87, 84.5, 70.4, 87.1, 83.3, 101, 75.6, 82.8, 76.6, 77.5% (compound alone 3.16 µM) and 90, 81.9, 80.4, 81.3, 82, 84.2 (2×), 89.1, 76.8, 91.8, 86.7, 77.7, 68.2, 86.6, 98.8, 86.4, 87.6, 85.5, 78.6, 82.3% (compound alone 10 µM).
In the case of `CC(CO)NC(=O)c1cc(-c2ccc(Cl)cc2)nn(-c2cnn(C)c2)c1=O` (centres undefined), the viability, T/C by setting is: (compound alone 0.1 µM) 89.9, 104 (2×), 94.1, 107, 88.2, 88.7, 98.7, 94.5, 93.2, 93.4, 87.1, 81.9, 89.1, 92.8, 94.4, 98.8, 106, 97.9, 97.2%; (compound alone 1 µM) 88.3, 110, 86.5, 95.1, 88, 97.1, 92, 93.9, 84.5, 93 (2×), 86.2, 93.6, 91.1, 91.5, 87.5, 91, 96.9, 91.8, 101, 94.9%; (compound alone 3.16 µM) 87.9 (2×), 89.5, 107, 92.1, 88.2, 81.5, 85.4, 89.9, 94.2, 77.4, 86.5, 91.2, 81.7, 93.9, 84.4, 97, 94.1, 88.7%; (compound alone 10 µM) 91.5, 85.9, 107, 89.2, 98.6, 93.9, 90.9, 81.1, 92.9, 86.3, 81.8, 90.3, 96.6, 79.5, 98.5, 91.3, 90.4, 99.5, 99%.
`Cc1cncc(-c2nc(NCCc3c[nH]c4ccccc34)c3ncn(C(C)C)c3n2)c1`: the viability, T/C is, setting by setting: (compound alone 1 µM) 101, 82, 95.4, 79.4, 91.7 (2×), 99.4, 97.9, 104, 89.2, 85.1, 96.6, 102 (2×), 95.9, 99.7, 108 (2×), 100, 88.9%; (compound alone 3.16 µM) 118, 86.6, 107, 93.8, 106, 109, 133, 108, 104 (2×), 93.4, 98.2, 114, 105, 90.8, 98.8, 123, 110, 119, 95.2%; (compound alone 10 µM) 119 (2×), 104, 112 (3×), 105, 108, 102, 113, 91.8, 115, 100, 109, 95.2, 117, 99.7, 131, 138, 107%.
